The results in this text go back to article PMC4336329 (PLoS ONE, 2015).

About 14,000 (4.5%) of roughly 310,000 compounds showed an effect of 50% or more. Effects have a minus sign here. Some of the results follow.
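Note: peak tail current of the secondary pulse compared with the same well before compound.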

In the assay the target is human ether-à-go-go-related gene (hERG) potassium channel (human, UniProt Q12809). The assay is described as follows: primary screen, population patch clamp on CHO cells stably expressing hERG.
Sequence of human ether-à-go-go-related gene (hERG) potassium channel (Q12809 whole entry, looked up): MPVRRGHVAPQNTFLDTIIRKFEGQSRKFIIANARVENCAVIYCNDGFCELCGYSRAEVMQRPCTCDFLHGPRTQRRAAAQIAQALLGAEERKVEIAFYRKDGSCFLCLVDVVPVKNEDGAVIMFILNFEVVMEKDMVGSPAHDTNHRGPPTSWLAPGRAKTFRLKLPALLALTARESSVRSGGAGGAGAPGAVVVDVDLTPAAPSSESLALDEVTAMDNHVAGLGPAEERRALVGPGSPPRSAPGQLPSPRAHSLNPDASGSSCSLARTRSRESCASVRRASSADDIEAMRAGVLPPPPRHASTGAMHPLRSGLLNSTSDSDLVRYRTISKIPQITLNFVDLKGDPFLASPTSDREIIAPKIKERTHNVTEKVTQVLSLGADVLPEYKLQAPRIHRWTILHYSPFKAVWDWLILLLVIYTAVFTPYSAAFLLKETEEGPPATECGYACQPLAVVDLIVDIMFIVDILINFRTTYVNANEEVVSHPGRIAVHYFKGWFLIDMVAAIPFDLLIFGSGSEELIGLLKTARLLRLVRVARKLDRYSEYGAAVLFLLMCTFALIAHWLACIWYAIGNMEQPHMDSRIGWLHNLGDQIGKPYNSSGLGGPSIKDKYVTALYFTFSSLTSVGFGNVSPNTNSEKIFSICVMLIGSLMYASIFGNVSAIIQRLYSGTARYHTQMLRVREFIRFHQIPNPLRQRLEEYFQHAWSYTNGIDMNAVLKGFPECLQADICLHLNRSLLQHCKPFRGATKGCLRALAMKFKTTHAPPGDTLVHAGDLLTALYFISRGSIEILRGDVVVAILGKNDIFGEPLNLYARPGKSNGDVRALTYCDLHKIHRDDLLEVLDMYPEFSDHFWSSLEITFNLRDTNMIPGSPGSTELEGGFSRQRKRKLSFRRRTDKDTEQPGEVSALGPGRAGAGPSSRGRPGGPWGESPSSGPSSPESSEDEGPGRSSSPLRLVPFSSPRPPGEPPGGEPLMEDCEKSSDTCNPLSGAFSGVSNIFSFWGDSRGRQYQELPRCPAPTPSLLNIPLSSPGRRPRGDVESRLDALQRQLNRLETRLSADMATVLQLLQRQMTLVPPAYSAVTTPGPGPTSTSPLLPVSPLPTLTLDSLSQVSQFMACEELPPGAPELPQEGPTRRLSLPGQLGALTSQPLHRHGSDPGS
As to `CCCCn1c(N)c(N(CCOC)C(=O)c2ccc(Cl)c(S(=O)(=O)N3CCCC3)c2)c(=O)[nH]c1=O`, the “hERG current change (%, negative = inhibition) at 10uM” value turned out to be 14.9%.
Next, `COc1ccc(/C(C)=N/NC(=O)CCC(=O)Nc2ccc(Cl)cc2Cl)c(OC)c1`: -3.74%; `CCOc1ccc(S(=O)(=O)N2CCCCCC2)c2ccccc12`: 3.28%; `CCc1ccc(C(=O)/C=C/Nc2ccc(S(=O)(=O)Nc3onc(C)c3C)cc2)cc1`: 6.45%.
Take `S=C(NCc1ccco1)N1CCN(c2ccccc2Cl)CC1`: the “hERG current change (%, negative = inhibition) at 10uM” value is on record as -17.4%.
Next, `O=C(/C=C/c1ccc(F)cc1)NC(=S)NNC(=O)c1cccnc1`: 13.6%; `O=C(N/C(=C/c1cccc([N+](=O)[O-])c1)C(=O)N1CCCC1)c1ccccc1`: -46%; `CC(=O)c1ccc(OCCNS(=O)(=O)c2ccc(-n3cnnn3)cc2)cc1`: -55.3%.
Next, `CCCn1c(SCC(=O)Nc2cccc(S(=O)(=O)NC3=NCCCCC3)c2)nc2ccccc2c1=O`: -44.8%; `COc1ccc(C(C)=O)cc1COC(=O)CSCC(=O)Nc1ccc(C)cc1`: -17.9%; `Cc1ccc(C(=O)Nc2nnc(-c3ccc(C(C)(C)C)cc3)s2)cc1`: 4.81%.
In the case of `CCCn1c(=O)c(C(=O)NCc2ccccc2Cl)c(O)c2ccccc21`, the “hERG current change (%, negative = inhibition) at 10uM” value was determined as 32.6%.
Next, `Cc1ccc(S(=O)(=O)NCc2ccc(C(=O)NC3CCC(C)CC3)cc2)cc1` (stereo not shown): 0.922%; `Cc1cc2oc(C(=O)Nc3c(C)n(C)n(-c4ccccc4)c3=O)c(C)c2cc1Cl`: -72.2%.
Turning to `CCCOc1ccc(/C=C/C(=O)O)cc1OC`, the “hERG current change (%, negative = inhibition) at 10uM” value is 21.6%.
As to `COC(=O)c1sc(S(=O)(=O)Nc2ccc(C)c(C)c2)c(C(=O)OC)c1C`, the “hERG current change (%, negative = inhibition) at 10uM” value came out at 6.57%.
Consider `CC(=O)c1ccc(NCC2COc3ccccc3O2)c([N+](=O)[O-])c1` (stereo not shown), for which the “hERG current change (%, negative = inhibition) at 10uM” value is -12.7%.
For `Cc1cc(NC(=O)CSc2nnc(COc3cccc(C)c3C)n2C)no1` the value was 10.2%.
For the compound `Cc1cc(C(=O)Nc2ncn(Cc3ccc(F)cc3)n2)ccc1[N+](=O)[O-]`, the “hERG current change (%, negative = inhibition) at 10uM” value was -51.7%.
Next, `O=C(Nc1ccon1)c1cccc(S(=O)(=O)N2CCCCC2)c1`: -4.24%; `Cc1ccc(C(=O)OCCc2sc[n+](Cc3ccccc3)c2C)cc1.[Cl-]`: -70.1%; `Cc1cccc(C(C)C)c1NC(=O)COC(=O)CNS(=O)(=O)c1ccccc1`: 14.5%.
Next, `Cc1cc(C)nc(N2CCC(C(=O)NCCc3ccccc3)CC2)n1`: 5.74%; `O=C(NNC(=S)NC(=O)c1ccccc1)c1cccnc1`: 3.97%; `O=C(NCCCn1ccnc1)c1ccc(Cl)c(Cl)c1`: -17.3%.
As for `COc1cc(C(=O)NC2CCCC(C)C2C)ccc1OCC(=O)N1CCOCC1` (stereo not shown), the “hERG current change (%, negative = inhibition) at 10uM” value is reported as 9.15%.
For `O=C(CN1C(=O)c2ccccc2C1=O)c1ccc(F)cc1` the value was -4.57%; for `CCc1ccc(N2C(=O)CN(Cc3ccccc3)C2=S)cc1`, 18.5%; for `COc1ccccc1NC(=O)c1nnn(CC(=O)Nc2cccc(SC)c2)c1N`, 5.11%.
As to `Cc1nc2scc(C)n2c(=O)c1S(=O)(=O)Nc1ccc(N2CCOCC2)cc1`, the “hERG current change (%, negative = inhibition) at 10uM” value is -0.179%.
Next, `COc1ccc(CNC(=O)CN(Cc2ccc(Cl)cc2)S(C)(=O)=O)cc1`: -45.4%; `Cc1cc(OCc2nnc(SCC(=O)OC3CCCCC3)o2)ccc1Cl`: -5.56%.
Next, `Cc1ccccc1C(=O)NCC(=O)OC(C)C(=O)NCc1ccco1` (stereo not shown): 4.93%; `O=C1CSC(=S)N1N1C(=O)c2cccc([N+](=O)[O-])c2C1=O`: 14.5%; `O=C(CSc1ccc(Cl)cc1)NN=C1CCCCCC1`: -18.5%.
Next, `O=C(Nc1ccc2c(c1)OCCO2)c1cc2sccc2n1Cc1ccc(F)cc1`: 3.66%; `Nc1nc(CSc2nnnn2-c2ccc(Cl)cc2)nc(N2CCOCC2)n1`: 12.2%.
Take `Cc1ccccc1C(=O)NC1CC2CCCC(C1)N2C(=O)Nc1ccccc1` (stereo not shown): the “hERG current change (%, negative = inhibition) at 10uM” value is listed as -0.97%.
Next, `COc1ccc(NC(=O)CCc2c(C)nc3nc(CNC(=O)c4cccc(F)c4)nn3c2C)cc1OC`: 36.7%; `O=C(Nc1cccc(S(=O)(=O)N2CCCC2)c1)c1cc(S(=O)(=O)N2CCOCC2)ccc1F`: -24.7%; `CC(C)CCNC(=O)c1ccc(Cn2c(=S)[nH]c3ccccc3c2=O)cc1`: 12.1%.
In the case of `S=C(Nc1ccccc1)Nc1cccc(Cl)c1Cl`, the “hERG current change (%, negative = inhibition) at 10uM” value is listed as 4.64%.
Next, `COC(=O)c1sccc1NC(=O)Nc1cc(OC)ccc1OC`: -57.4%.
